# The supplement of paper PMC12645437, “Orthogonal IMiD-Degron Pairs Induce Selective Protein Degradation in Cells” (ACS Chemical Biology, 2025)
# This is one part of the list.
# Target: no compound (DMSO)
# Experiment: log2 fold change of degron read counts, EGFP-low vs EGFP+ sorted cells; higher = lower degron-EGFP level without compound (poor expression or instability)
# Details: compound: DMSO control; 18 h
# 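Further: jurkat cells carrying a lentiviral library of mutant zinc finger degrons fused to EGFP plus mCherry, mCherry+ cells FACS sorted, degron abundance counted by next-generation sequencing.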
row,Sequence,log2 fold change of degron read counts
1,FWCEICGHDFTQKGNLLRHIKL,0.246
2,FWCNVCGADFTQKGNLLRHIKL,-0.0903
3,FACNQCGHQFTQKGNLLRHIKL,-0.288
4,FKCPICGRRFTQKGNLLRHIKL,-1.45
5,FKCEICGATFTQKGNLLRHIKL,-1.92
6,FKCDICGAFFTQKGNLLRHIKL,-2.2
7,FICDICGATFTQKGNLLRHIKL,-1.31
8,FACEVCGATFTQKGNLLRHIKL,-0.538
9,FFCPICGHNFTQKGNLLRHIKL,0.55
10,LKCPICGFKCTQKGNLLRHIKL,-0.651
11,FQCNQCGASFTQKGNLLRHIKL,-1.32
12,FGCSVCGHLFTQKGNLLRHIKL,0.406
13,FNCNICGAMFTQKGNLLRHIKL,-0.338
14,FQCNVCGAAFTQKGNLLRHIKL,-0.874
